Where “and” joins values, the source holds several entries; their conditions need not be identical. Identical values can stand only once. Counter-ions that a name gives are not always drawn. In all, about 1,900 compounds were measured (“cell viability of compound + 1 nM pemigatinib relative to pemigatinib-only (DMSO) wells”: median about 0.95, lowest 2% from about 0.22 on). The list shows a part of the results.
These molecules were tested on PDC-DUC18828 (assay: cell viability of compound + 1 nM pemigatinib relative to pemigatinib-only (DMSO) wells (fraction); PDC-DUC18828 is a patient-derived cholangiocarcinoma cell line; higher = less growth inhibition). Settings: first compound 1 µM; pemigatinib concentration 1 nM; 72 h.
Procedure: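 Selleck Bioactive library screen in the patient-derived FGFR2 fusion-positive ICC cell line PDC-DUC18828 (500 cells/well). Each compound was tested at 1 uM with 1 nM pemigatinib, in triplicate, for 72 h. Viability was read by CellTiter-Glo and normalised to plate DMSO controls. Value is the paper's averaged normalised viability.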
Work on `O=C(c1cn(Cc2cncn2Cc2ccc(Br)cc2)cc1-c1cccc2ccccc12)N1CCOCC1` + CCN1C(=O)N(c2c(F)c(OC)cc(OC)c2F)Cc2cnc3[nH]c(CN4CCOCC4)cc3c21 [pemigatinib] yielded a cell viability of 0.671.
In the case of `CCN1CCN(C(=O)N[C@@H](C(=O)N[C@@H]2C(=O)N3C(C(=O)O)=C(CSc4nnnn4C)CS[C@H]23)c2ccc(O)cc2)C(=O)C1=O` [Cefoperazone] + CCN1C(=O)N(c2c(F)c(OC)cc(OC)c2F)Cc2cnc3[nH]c(CN4CCOCC4)cc3c21 [pemigatinib], the cell viability is reported as 1.09.
In the case of `CN(C)CCOc1ccc(/C(=C(/CCCl)c2ccccc2)c2ccccc2)cc1` [Toremifene Citrate] + CCN1C(=O)N(c2c(F)c(OC)cc(OC)c2F)Cc2cnc3[nH]c(CN4CCOCC4)cc3c21 [pemigatinib], the cell viability is reported as 0.875.
Molecule `Cc1ccc(Cl)c(Nc2ccccc2C(=O)O)c1Cl` [Meclofenamate Sodium] + CCN1C(=O)N(c2c(F)c(OC)cc(OC)c2F)Cc2cnc3[nH]c(CN4CCOCC4)cc3c21 [pemigatinib] has a cell viability of 0.936.
For `O=C(NCCO[N+](=O)[O-])c1cccnc1` [Nicorandil] + CCN1C(=O)N(c2c(F)c(OC)cc(OC)c2F)Cc2cnc3[nH]c(CN4CCOCC4)cc3c21 [pemigatinib], the cell viability was 0.936.
In the case of `C[C@H]1C[C@H]2[C@@H]3CCC4=CC(=O)C=C[C@]4(C)[C@@]3(F)[C@@H](O)C[C@]2(C)[C@@]1(O)C(=O)CO` [Betamethasone] + CCN1C(=O)N(c2c(F)c(OC)cc(OC)c2F)Cc2cnc3[nH]c(CN4CCOCC4)cc3c21 [pemigatinib], the cell viability is reported as 0.956.
With `Oc1ccc(OCc2ccccc2)cc1` [Monobenzone] + CCN1C(=O)N(c2c(F)c(OC)cc(OC)c2F)Cc2cnc3[nH]c(CN4CCOCC4)cc3c21 [pemigatinib] the cell viability was 1.06.
`CCOC(=O)Nc1cc(-c2ccc(C)c(NS(C)(=O)=O)c2)nn2c(C)nnc12` [Bromosporine] + CCN1C(=O)N(c2c(F)c(OC)cc(OC)c2F)Cc2cnc3[nH]c(CN4CCOCC4)cc3c21 [pemigatinib] gave a cell viability of 1.05.
In the case of `Cc1cc2c(F)c(Oc3ncnn4cc(OC[C@@H](C)OC(=O)[C@H](C)N)c(C)c34)ccc2[nH]1` + CCN1C(=O)N(c2c(F)c(OC)cc(OC)c2F)Cc2cnc3[nH]c(CN4CCOCC4)cc3c21 [pemigatinib], the cell viability is reported as 0.951.
`C[C@@H]1CCN(C(=O)CC#N)C[C@@H]1N(C)c1ncnc2[nH]ccc12` + CCN1C(=O)N(c2c(F)c(OC)cc(OC)c2F)Cc2cnc3[nH]c(CN4CCOCC4)cc3c21 [pemigatinib] was tested, and the cell viability was 0.912 and 0.924.
Molecule `C#CC[C@H](c1nc2cc(Cl)ccc2c(=O)n1Nc1ccccc1)N(CCCN)C(=O)c1cccc(Cl)c1F` + CCN1C(=O)N(c2c(F)c(OC)cc(OC)c2F)Cc2cnc3[nH]c(CN4CCOCC4)cc3c21 [pemigatinib] has a cell viability of 0.281.
With `COCC[n+]1c2c(n(Cc3cnccn3)c1C)C(=O)c1ccccc1C2=O` [YM155 (Sepantronium Bromide)] + CCN1C(=O)N(c2c(F)c(OC)cc(OC)c2F)Cc2cnc3[nH]c(CN4CCOCC4)cc3c21 [pemigatinib] the cell viability was 0.00992.
`O=C(NCCO)c1cccc(-c2cc(Nc3ccc(OC(F)(F)F)cc3)ncn2)c1` + CCN1C(=O)N(c2c(F)c(OC)cc(OC)c2F)Cc2cnc3[nH]c(CN4CCOCC4)cc3c21 [pemigatinib] gave a cell viability of 0.989.
`COc1ccc([C@]2(C#N)CC[C@@H](C(=O)O)CC2)cc1OC1CCCC1` [Cilomilast] + CCN1C(=O)N(c2c(F)c(OC)cc(OC)c2F)Cc2cnc3[nH]c(CN4CCOCC4)cc3c21 [pemigatinib] was tested, and the cell viability was 1.01.
In the case of `O=S(=O)(O)NC1CCCCC1` [Cyclamic  acid] + CCN1C(=O)N(c2c(F)c(OC)cc(OC)c2F)Cc2cnc3[nH]c(CN4CCOCC4)cc3c21 [pemigatinib], the cell viability is reported as 0.923.
Work on `O=c1oc2ccccc2c(O)c1Cc1c(O)c2ccccc2oc1=O` [Dicoumarol] + CCN1C(=O)N(c2c(F)c(OC)cc(OC)c2F)Cc2cnc3[nH]c(CN4CCOCC4)cc3c21 [pemigatinib] yielded a cell viability of 0.975.
In the case of `CS(=O)(=O)N1CCc2c(-c3cnc(N)nc3)nc(N3CCOCC3)nc21` + CCN1C(=O)N(c2c(F)c(OC)cc(OC)c2F)Cc2cnc3[nH]c(CN4CCOCC4)cc3c21 [pemigatinib], the cell viability is reported as 0.799.
`CC(=O)[C@]1(O)Cc2c(O)c3c(c(O)c2[C@@H](O[C@H]2C[C@H](N)[C@H](O)[C@H](C)O2)C1)C(=O)c1ccccc1C3=O` [Idarubicin HCl] + CCN1C(=O)N(c2c(F)c(OC)cc(OC)c2F)Cc2cnc3[nH]c(CN4CCOCC4)cc3c21 [pemigatinib] showed a cell viability of 0.119.
Work on `CCCOc1ccn2c(C(C)=O)cc(-c3ccccc3S(C)(=O)=O)c2c1` + CCN1C(=O)N(c2c(F)c(OC)cc(OC)c2F)Cc2cnc3[nH]c(CN4CCOCC4)cc3c21 [pemigatinib] yielded a cell viability of 0.946.
Work on `CC(/C=C1\SC(=S)N(CC(=O)O)C1=O)=C\c1ccccc1` [Epalrestat] + CCN1C(=O)N(c2c(F)c(OC)cc(OC)c2F)Cc2cnc3[nH]c(CN4CCOCC4)cc3c21 [pemigatinib] yielded a cell viability of 0.994.
`O=C1c2ccccc2C(=O)c2c1ccc(O)c2O` [Alizarin] + CCN1C(=O)N(c2c(F)c(OC)cc(OC)c2F)Cc2cnc3[nH]c(CN4CCOCC4)cc3c21 [pemigatinib] was tested, and the cell viability was 0.933.
`Cc1nc(=O)c2cc(CN(C)c3ccc(C(=O)N[C@@H](CCC(=O)O)C(=O)O)s3)ccc2[nH]1` [Raltitrexed] + CCN1C(=O)N(c2c(F)c(OC)cc(OC)c2F)Cc2cnc3[nH]c(CN4CCOCC4)cc3c21 [pemigatinib] gave a cell viability of 0.981.
In the case of `C=CC(=O)Nc1cccc(Oc2nc(Nc3ccc(N4CCN(C)CC4)cc3OC)ncc2Cl)c1` + CCN1C(=O)N(c2c(F)c(OC)cc(OC)c2F)Cc2cnc3[nH]c(CN4CCOCC4)cc3c21 [pemigatinib], the cell viability is reported as 0.966.
In the case of `O=C(/C=C/c1ccc(O)c(O)c1)OCCc1ccccc1` [Caffeic Acid Phenethyl Ester] + CCN1C(=O)N(c2c(F)c(OC)cc(OC)c2F)Cc2cnc3[nH]c(CN4CCOCC4)cc3c21 [pemigatinib], the cell viability is reported as 0.865.
`CC(C)CC(CC(=O)NO)C(=O)N[C@@H](Cc1ccc2ccccc2c1)C(=O)N[C@@H](C)C(=O)NCCN` (stereo partly specified) + CCN1C(=O)N(c2c(F)c(OC)cc(OC)c2F)Cc2cnc3[nH]c(CN4CCOCC4)cc3c21 [pemigatinib] was tested, and the cell viability was 0.971.
`COc1ccc([C@@H]2CC(=O)c3c(O)cc(O[C@@H]4O[C@H](CO)[C@@H](O)[C@H](O)[C@H]4O[C@@H]4O[C@@H](C)[C@H](O)[C@@H](O)[C@H]4O)cc3O2)cc1O` [Neohesperidin] + CCN1C(=O)N(c2c(F)c(OC)cc(OC)c2F)Cc2cnc3[nH]c(CN4CCOCC4)cc3c21 [pemigatinib] was tested, and the cell viability was 0.974.
`CC(=O)OCC(CCn1cnc2cnc(N)nc21)COC(C)=O` [Famciclovir] + CCN1C(=O)N(c2c(F)c(OC)cc(OC)c2F)Cc2cnc3[nH]c(CN4CCOCC4)cc3c21 [pemigatinib] showed a cell viability of 0.862.
Work on `C[C@H](CCC(=O)O)[C@H]1CC[C@H]2[C@@H]3[C@H](O)C[C@@H]4C[C@H](O)CC[C@]4(C)[C@H]3CC[C@]12C` [Chenodeoxycholic Acid] + CCN1C(=O)N(c2c(F)c(OC)cc(OC)c2F)Cc2cnc3[nH]c(CN4CCOCC4)cc3c21 [pemigatinib] yielded a cell viability of 0.958.
In the case of `CC[C@H](C)C(=O)O[C@H]1CCC=C2C=C[C@H](C)[C@H](CC[C@@H]3C[C@@H](O)CC(=O)O3)[C@H]21` [Mevastatin] + CCN1C(=O)N(c2c(F)c(OC)cc(OC)c2F)Cc2cnc3[nH]c(CN4CCOCC4)cc3c21 [pemigatinib], the cell viability is reported as 0.947.
Work on `Cc1ccccc1CN1C2=NCCN2C(=O)C2=C1CCN(Cc1ccccc1)C2` [TIC10 Analogue] + CCN1C(=O)N(c2c(F)c(OC)cc(OC)c2F)Cc2cnc3[nH]c(CN4CCOCC4)cc3c21 [pemigatinib] yielded a cell viability of 0.97.
`Nc1cc(C(Cl)=C(Cl)Cl)c(S(N)(=O)=O)cc1S(N)(=O)=O` [Clorsulon] + CCN1C(=O)N(c2c(F)c(OC)cc(OC)c2F)Cc2cnc3[nH]c(CN4CCOCC4)cc3c21 [pemigatinib] was tested, and the cell viability was 0.988.
`COc1ccc(F)c(F)c1C(=O)c1cnc(NC2CCN(S(C)(=O)=O)CC2)nc1N` + CCN1C(=O)N(c2c(F)c(OC)cc(OC)c2F)Cc2cnc3[nH]c(CN4CCOCC4)cc3c21 [pemigatinib] was tested, and the cell viability was 0.691.
`CCCCC(F)(F)[C@@]1(O)CC[C@H]2[C@@H](CC(=O)[C@@H]2CCCCCCC(=O)O)O1` [Lubiprostone] + CCN1C(=O)N(c2c(F)c(OC)cc(OC)c2F)Cc2cnc3[nH]c(CN4CCOCC4)cc3c21 [pemigatinib] gave a cell viability of 0.996.
In the case of `CCOC(=O)[C@H](CCc1ccccc1)N[C@H]1CS[C@H](c2cccs2)CN(CC(=O)O)C1=O` [Temocapril HCl] + CCN1C(=O)N(c2c(F)c(OC)cc(OC)c2F)Cc2cnc3[nH]c(CN4CCOCC4)cc3c21 [pemigatinib], the cell viability is reported as 1.04.
Molecule `CCC(=O)O[C@]1(C(=O)CCl)[C@@H](C)C[C@H]2[C@@H]3CCC4=CC(=O)C=C[C@]4(C)[C@@]3(F)[C@@H](O)C[C@@]21C` [Clobetasol propionate] + CCN1C(=O)N(c2c(F)c(OC)cc(OC)c2F)Cc2cnc3[nH]c(CN4CCOCC4)cc3c21 [pemigatinib] has a cell viability of 0.925.
For `O=C1C[C@@H](c2ccc(O)cc2)Oc2cc(O)cc(O)c21` [Naringenin] + CCN1C(=O)N(c2c(F)c(OC)cc(OC)c2F)Cc2cnc3[nH]c(CN4CCOCC4)cc3c21 [pemigatinib], the cell viability was 0.92.

Reference: the supplement of paper PMC9588766
